Measured values from the supplement of paper PMC7826260.
This is one part of the list. Viral Rep nickase domains cut single-stranded DNA in vitro (1 h at 37 °C, 3 µM enzyme); the outer parts of the 90-letter strands are left off. Numbers give uncut DNA relative to the enzyme-free pool, as log2; strong cutting gives strongly negative numbers. There is no active / inactive call. Counts are relative to all reads, so uncut sequences can rise above 0 when many others are cut.

What was measured:
Experiment in all cases: uncleaved DNA left, log2 of reads against the no-enzyme library (log2 ratio); higher = less cleavage (more negative = more Rep cleavage of the k-mer); sequences stand for … in CTCGTCCG…ACCGGAGA
[1] = tested on: T1, Rep nickase domain of Muscovy duck circovirus
T1 sequence (Rep 1-111, printed without the tag): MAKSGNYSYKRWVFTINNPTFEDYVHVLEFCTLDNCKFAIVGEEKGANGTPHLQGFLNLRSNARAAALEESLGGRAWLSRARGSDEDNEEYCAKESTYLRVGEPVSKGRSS
Experimental: (§1)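 A pool of 90-nt single-stranded DNAs with seven random bases just before the constant AC of the nick site (name = the seven bases) was cut by 3 µM recombinant His6-SUMO-tagged Rep nickase domain (300 nM DNA, 50 mM HEPES pH 8.0, 50 mM NaCl, 1 mM MnCl2, 1 h, 37 °C, three replicates). Uncut DNA was amplified and sequenced.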

[2] = tested on: T2, Rep nickase domain of banana bunchy top virus
T2 sequence (Rep 1-94, printed without the tag): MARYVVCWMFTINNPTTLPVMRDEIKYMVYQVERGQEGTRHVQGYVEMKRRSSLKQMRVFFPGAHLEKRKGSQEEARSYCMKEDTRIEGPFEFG
Experimental: as §1

[3] = tested on: T3, Rep nickase domain of cabbage leaf curl virus
T3 sequence (Rep 1-116, printed without the tag): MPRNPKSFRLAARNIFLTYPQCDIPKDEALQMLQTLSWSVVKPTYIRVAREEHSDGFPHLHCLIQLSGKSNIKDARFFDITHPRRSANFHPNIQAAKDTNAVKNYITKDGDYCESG
Experimental: as §1

[4] = tested on: T4, Rep nickase domain of chickpea chlorotic dwarf virus
T4 sequence (Rep 1-124, printed without the tag): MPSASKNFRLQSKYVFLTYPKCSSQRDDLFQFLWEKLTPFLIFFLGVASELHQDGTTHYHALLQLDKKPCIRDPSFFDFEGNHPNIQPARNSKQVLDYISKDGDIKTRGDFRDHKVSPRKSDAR
Experimental: as §1

[5] = tested on: T5, Rep nickase domain of faba bean necrotic yellows virus
T5 sequence (Rep 1-98, printed without the tag): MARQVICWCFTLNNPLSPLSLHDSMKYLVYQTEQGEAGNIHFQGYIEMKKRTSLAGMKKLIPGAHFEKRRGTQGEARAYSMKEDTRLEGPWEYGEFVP
Experimental: as §1

[6] = tested on: T6, Rep nickase domain of maize striate mosaic virus
T6 sequence (Rep 1-117, printed without the tag): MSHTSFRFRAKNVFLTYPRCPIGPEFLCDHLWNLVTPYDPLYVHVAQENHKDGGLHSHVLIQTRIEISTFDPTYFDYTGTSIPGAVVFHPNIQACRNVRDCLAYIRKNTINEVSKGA
Experimental: as §1

[7] = tested on: T7, Rep nickase domain of porcine circovirus 2
T7 sequence (Rep 2-116, printed without the tag): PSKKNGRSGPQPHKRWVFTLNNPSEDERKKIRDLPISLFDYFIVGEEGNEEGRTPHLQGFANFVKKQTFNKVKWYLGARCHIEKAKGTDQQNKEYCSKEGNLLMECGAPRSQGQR
Experimental: as §1

[8] = tested on: T8, Rep nickase domain of tomato golden mosaic virus
T8 sequence (Rep 1-124, printed without the tag): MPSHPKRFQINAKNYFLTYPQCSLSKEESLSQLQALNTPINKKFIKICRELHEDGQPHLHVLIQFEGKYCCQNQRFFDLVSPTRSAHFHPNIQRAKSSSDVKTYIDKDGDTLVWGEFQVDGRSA
Experimental: as §1

[9] = tested on: T9, Rep nickase domain of tomato yellow leaf curl virus
T9 sequence (Rep 1-136, printed without the tag): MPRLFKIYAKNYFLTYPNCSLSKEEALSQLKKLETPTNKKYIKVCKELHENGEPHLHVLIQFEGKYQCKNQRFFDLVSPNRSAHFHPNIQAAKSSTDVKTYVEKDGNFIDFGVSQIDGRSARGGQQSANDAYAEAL
Experimental: as §1

[10] = tested on: T10, Rep nickase domain of wheat dwarf virus
T10 sequence (Rep 1-137, printed without the tag): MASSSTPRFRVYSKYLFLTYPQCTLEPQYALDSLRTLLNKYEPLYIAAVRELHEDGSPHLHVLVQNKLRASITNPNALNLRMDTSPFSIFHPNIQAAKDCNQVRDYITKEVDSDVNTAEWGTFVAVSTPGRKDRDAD
Experimental: as §1

Row | Sequence | uncleaved DNA left (log2) [1] | uncleaved DNA left (log2) [2] | uncleaved DNA left (log2) [3] | uncleaved DNA left (log2) [4] | uncleaved DNA left (log2) [5] | uncleaved DNA left (log2) [6] | uncleaved DNA left (log2) [7] | uncleaved DNA left (log2) [8] | uncleaved DNA left (log2) [9] | uncleaved DNA left (log2) [10]
1 | CAGAGTG | 0.0511 | 0.0353 | -0.422 | -0.308 | 0.061 | -0.662 | 0.127 | 0.00191 | -0.0161 | 0.00576
2 | ACATAAA | 0.0331 | 0.0139 | -0.159 | -0.145 | 0.0181 | -0.801 | 0.114 | 0.0517 | -0.136 | -0.0256
3 | GTCTATA | 0.0752 | 0.0664 | 0.316 | 0.828 | 0.0311 | 1.86 | 0.0576 | 0.0797 | 0.0492 | 0.0893
4 | CCCATCC | 0.0428 | -0.0603 | 0.0939 | -0.14 | 0.0816 | -0.668 | 0.0479 | 0.0647 | -0.109 | 0.0304
5 | CCTGTAG | -0.00255 | -0.0902 | -0.903 | -0.361 | -0.27 | -1.16 | 0.0732 | -0.205 | -0.0727 | -0.309
6 | CGCCGAA | 0.00765 | -0.119 | -0.0555 | -0.141 | 0.112 | -0.389 | 0.00796 | -0.159 | -0.109 | -0.0593
7 | AGGATTT | 0.11 | 0.0407 | 0.113 | -0.11 | -0.0458 | 1.22 | -0.327 | 0.00568 | -0.0409 | 0.0876
